The whole screen tested about 50,000 compounds, of which about 800 (1.6%) showed an effect of 50% or more. The list shows a part of the results.
What follows are compounds tested against Bcl-2-like protein 10 (Homo sapiens) (UniProt Q9HD36) (assay: TR3 peptide-Bcl-B binding displacers, biochemical primary FP assay, phenotype converters (AID 1240;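 note: 0% = Bcl-B with tracer peptide and DMSO and 100% = tracer peptide lacking Bcl-B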)). Settings: GST-Bcl-B / FITC-TR3 peptide fluorescence polarization; stronger effect = higher value; compound at 3.75 mg/L.
Sequence of UniProt Q9HD36 (Q9HD36 whole entry, looked up): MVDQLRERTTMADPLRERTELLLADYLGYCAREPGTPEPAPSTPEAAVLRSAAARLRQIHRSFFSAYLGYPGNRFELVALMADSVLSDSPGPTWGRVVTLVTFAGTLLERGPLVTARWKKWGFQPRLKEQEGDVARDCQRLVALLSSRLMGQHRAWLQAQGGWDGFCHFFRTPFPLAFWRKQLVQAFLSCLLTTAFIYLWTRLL

Row | SMILES | displacement
1 | COc1ccc(C(=O)N2CCN(Cc3ccc(Br)cc3)CC2)cc1OC | -5.4%
2 | COc1ccc(S(=O)(=O)Nc2ncccn2)cc1 | 17.2%
3 | CCn1c2ccccc2c2cc(NC(=O)Cc3ccc(Cl)cc3)ccc21 | 15.1%
4 | FC(F)(F)COc1nc(N2CCNCC2)nc(N(c2ccccc2)c2ccccc2)n1 | 7.7%
5 | Cc1ccc(C)c(OCc2nnc(NC(=O)c3ccco3)s2)c1 | -16.3%
6 | CC(=O)Nc1ccc(N2C(=O)c3cccc4c([N+](=O)[O-])ccc(c34)C2=O)cc1 | -4.1%
7 | CC1=C(C(=O)Nc2ccc(Cl)cc2)C(c2ccc(Br)cc2)NC(=S)N1 (stereo not drawn) | -2.1%
8 | O=C1C(Nc2ccccc2)=CC(c2ccccc2Cl)N1c1ccccc1 (stereo not drawn) | -0.7%
9 | CN(C)CCCN1C(=O)C2CC3=C(CC2C1=O)C(C)(C)CCC3 (stereo not drawn) | 3.7%
10 | O=C(COc1ccc2c3c(c(=O)oc2c1)CCC3)c1ccc(F)cc1 | 7.8%
11 | Cc1ccc([N+](=O)[O-])cc1NC(=O)CCCOc1ccccc1 | 8.1%
12 | O=S(=O)(c1cccc2cccnc12)N1CCN(c2ccccc2)CC1 | -8.1%
13 | Cc1cccc(C(=O)NNC(=O)c2ccc(O)cc2O)c1 | -27.7%
14 | CC(=O)N(c1ccc(Br)cc1)C1SC(=O)N(c2cccc(C)c2)C1=O (stereo not drawn) | -0.5%
15 | COc1ccc(/C(N)=N/OC(=O)c2cccc(Br)c2)cc1OC | -1.7%
16 | O=C1/C(=C/c2ccco2)SC(=S)N1c1cccc(C(F)(F)F)c1 | 15.4%
17 | O=C1CSC(=S)N1/N=C\c1ccc(O)c([N+](=O)[O-])c1 | -27.5%
18 | COc1ccc(N2CC(C(=O)OCC(=O)c3ccc(Br)cc3)CC2=O)cc1 (stereo not drawn) | -2.3%
19 | CCOc1ccccc1NC(=O)c1ccccc1[N+](=O)[O-] | -6%
20 | COc1ccc(/C=C/C(=O)C(C)(C)OC(C)=O)cc1 | -11.5%
21 | COc1ccc(-c2nn(-c3ccccc3)cc2/C=C2\N=C(c3ccccc3)OC2=O)cc1[N+](=O)[O-] | 93.8%
22 | O=C(CN(CCc1ccccc1)S(=O)(=O)c1ccccc1)Nc1ccc(Cl)cc1Cl | 4.5%
23 | COCCNS(=O)(=O)c1ccc(Cl)cc1 | 3.9%
24 | Cc1ccc(C(=O)N/C(=C\c2ccc(C(C)C)cc2)C(=O)NCC(C)C)cc1 | 8.8%
25 | Cc1cc(C)n2nc(-c3ccc(I)cc3)cc2n1 | -6.8%
26 | CCOc1cc(/C=N/N=C2/NC(=O)CS2)cc(I)c1O | -7.8%
27 | O=C(Nc1ccc2oc(-c3ccc(Cl)cc3Cl)nc2c1)c1ccccc1 | -3.1%

Row | SMILES | displacement
28 | COC(=O)c1cccc(NC(=O)/C=C/c2ccccc2)c1 | 17.7%
29 | COc1ccccc1NC(=O)C1=C(C)NC(=S)NC1c1ccc(F)cc1 (stereo not drawn) | -13.5%
30 | COc1ccc(OC)c(C2Sc3ccccc3NC3=C2C(=O)c2ccccc23)c1 (stereo not drawn) | 7.1%
31 | O=C1/C(=C\c2ccc(N3N=C(c4ccccc4)CC3c3ccccc3)cc2)SC(=S)N1C1CCS(=O)(=O)C1 (stereo not drawn) | -14.9%
32 | CC(C)(C)C1=CC(=C(C#N)C#N)C(C(C)(C)C)C(=O)C1=O (stereo not drawn) | 2.2%
33 | CCOC(=O)c1c(NC(=O)CSc2nnc3c4ccccc4n(CC)c3n2)sc2c1CCC2 | 10.6%
34 | CCOC(=O)c1c(NC(=O)CSc2nnc(C)c(=O)[nH]2)sc2c1CCCC2 | 9.8%
35 | O=C(NC(=S)Nc1nc(-c2ccccc2)cs1)c1ccc(Cl)cc1 | 12.6%
36 | Cc1ccc(NC(=O)COc2ccc(Cl)cc2Cl)cc1C | 5.8%
37 | COc1ccc(CCN2C(=O)CSC2c2ccc(Cl)cc2Cl)cc1OC (stereo not drawn) | -3.8%
38 | Cc1ccc(OCC(N)=O)c(Br)c1 | 4.8%
39 | Cc1cc(C)c(/C(=C2\OC(=O)c3ccccc32)[N+](=O)[O-])cc1C | -8.6%
40 | CCOc1cc2oc(=O)c(CC)c(C)c2cc1CC | -5.3%
41 | COc1ccc(N(CC(=O)Nc2ccc(OC)c(OC)c2)S(C)(=O)=O)c(OC)c1 | -5%
42 | COc1ccc(C(=O)NCCSCc2ccccc2Cl)cc1 | -1.3%
43 | Cc1ccccc1NC(=O)c1cc(C(=O)Nc2ccccc2C)n(C)n1 | 0.6%
44 | CCOC(=O)C(=CNc1ccc(OCC)cc1)C(=O)OCC | 0.2%
45 | COc1cc(/C=C2/SC(=S)N(C)C2=O)cc(Br)c1OCCOc1ccccc1C | -2%
46 | CCOC(=O)C1=C(C)NC2=C(C(=O)CC(C)(C)C2)C1c1ccc(OCc2ccc(C)cc2)c(OC)c1 (stereo not drawn) | -8.7%
47 | COc1cccc(N2C(=O)NC(=O)/C(=C/C=C/c3ccccc3[N+](=O)[O-])C2=O)c1 | 1.8%
48 | COCCNC(=O)CN(c1ccccc1OC)S(=O)(=O)c1ccccc1 | 5.7%
49 | CCOC(=O)c1ccc(N=CC2=C(O)CC(C)(C)CC2=O)cc1 | -8.1%
50 | O=C(O)CCCCCN1C(=O)C(=O)/C(=C(\O)c2ccc(Br)cc2)C1c1ccc2c(c1)OCO2 (stereo not drawn) | 0.9%
51 | COCCOC(=O)C1=C(C)NC2=C(C(=O)CC(C)(C)C2)C1c1cccc(Br)c1 (stereo not drawn) | 5.4%
52 | Cc1ccc(OCC(=O)Nc2ccc(F)cc2)c(Br)c1 | -10.9%
53 | COc1cc(Br)c(CNc2cccc(C)c2)cc1OC | 4.8%
